According to ChEMBL document CHEMBL1201862, “PubChem BioAssay data set” (2004):

The molecules below were run on NCI-H322M (assay: NCI anticancer screen, dose series, 48 h).
For `COc1cc(Br)c(CC2(C#N)c3ccccc3C3C(N2C(=O)c2ccccc2)C3(Cl)Cl)cc1OC` (stereo unspecified), the GI50 was inactive: > 65.5 µM. In the case of `N#CCC(=O)Nn1c(CC#N)nnc1Cc1ccccc1`, the GI50 is reported as inactive: > 100 µM. In the case of `Nc1ncn([C@H]2C[C@H](O)[C@@H](CO)O2)c(=O)n1` [DECITABINE], the GI50 is reported as inactive: 52.1 µM. In the case of `S=c1sscc1N1CCSc2ssc(=S)c21`, the GI50 is reported as inactive: > 100 µM. In the case of `CC(C)OCC1CC(CC(=O)Nc2nncs2)C(=O)O1` (stereo unspecified), the GI50 is reported as inactive: > 100 µM. With `COC(=O)Cc1cc(=O)n2c3ccccc3n(C)c2c1C#N` the GI50 was inactive: > 100 µM. `Nc1ncc(C=O)c(NCC2(CO)CCC2)n1` was tested, and the GI50 was inactive: > 100 µM. With `c1ccc2c(c1)CCN(C1=NCCO1)C2` the GI50 was inactive: > 10 µM. In the case of `CN[C@@H](Cc1cccc2ccccc12)C(=O)N[C@@H](CC(C)C)B(O)O`, the GI50 is reported as active: < 0.0177 µM. `CC1=NN(C(=O)Cc2ccccc2)C(=O)/C1=C\c1ccc(O)cc1` was tested, and the GI50 was inactive: > 100 µM. In the case of `COc1cc2nc(NCCCCCNC(=O)c3ccco3)nc(N)c2cc1OC`, the GI50 is reported as inactive: 24.6 µM. For `CN(N=O)C(=O)NNC(=O)N(C)N=O`, the GI50 was inactive: > 100 µM. In the case of `COC(=O)C(=O)C(C(=O)C1=NS(=O)(=O)c2cc(S(N)(=O)=O)c(Cl)cc2N1)c1nc2ccc(C(=O)c3ccccc3)cc2nc1O` (stereo unspecified), the GI50 is reported as inactive: > 100 µM. For `NC(Cc1cc(I)c(Oc2ccc(O)c(I)c2)c(I)c1)C(=O)O` (stereo unspecified) [RATHYRONINE], the GI50 was inactive: > 100 µM. For `CN1CCC2(c3ccccc3)CC(=O)/C(=C/c3ccc(Cl)c(Cl)c3)C1C2.[O-][Cl+3]([O-])([O-])O` (stereo unspecified), the GI50 was inactive: 5.18 µM. In the case of `CC(Oc1ccccc1Cl)C(=O)NN1C(=O)CC(=O)NC1=S` (stereo unspecified), the GI50 is reported as inactive: > 100 µM. For `COC(=O)[C@@H]1CN(C(=O)Cc2ccccc2)C(=O)N1`, the GI50 was inactive: > 100 µM. In the case of `COc1ccc(C2=NN(C(=O)COc3ccc(Cl)cc3)C(O)(c3ccc(Cl)cc3)C2)cc1` (stereo unspecified), the GI50 is reported as inactive: > 100 µM. With `C/C(=N\Nc1ccccc1)c1sc(-c2nc(C)c(/C(C)=N/Nc3ccccc3)s2)nc1C` the GI50 was inactive: 22.8 µM. With `CC#CC(=O)SCCNC(=O)CC` the GI50 was inactive: > 10 µM. For `O=S(=O)(O)c1ccc(Nc2ccnc3ccccc23)cc1`, the GI50 was inactive: > 100 µM. `COC1CC(n2cc(F)c(N)nc2=O)OC1CO` (stereo unspecified) was tested, and the GI50 was inactive: > 100 µM. With `Cc1ccc(S(=O)(=O)OC2CC(C(C)(C)C)CCC2c2ccccc2)cc1` (stereo unspecified) the GI50 was inactive: 79.1 µM. With `COc1cc(Nc2cnc3cc(N)ccc3n2)cc(OC)c1OC` the GI50 was inactive: > 100 µM. For `Cc1nn(C(=O)Cc2ccccc2)c2c1C(c1ccc(Cl)cc1)SC(=N)N2` (stereo unspecified), the GI50 was inactive: > 100 µM. In the case of `C=CC[C@@]1(C#N)C[C@H](C[C@]2(C#N)C[C@H](CCl)OC(C)(C)O2)OC(C)(C)O1`, the GI50 is reported as inactive: > 100 µM. `c1ccc(/N=C2/SC(c3ccccc3)(c3ccccc3)c3ccccc32)cc1` was tested, and the GI50 was inactive: > 100 µM. With `O=C(CSCC(=O)N/N=C\c1ccc(O)c(O)c1O)N/N=C\c1ccc(O)c(O)c1O` the GI50 was inactive: 23.7 µM. `C=C1c2nc3ccccc3n2C=C(c2ccccc2)N1c1ccc([N+](=O)[O-])cc1` was tested, and the GI50 was inactive: 20.8 µM. In the case of `COc1ccc(-c2nc(SCC(=O)N/N=C/c3ccc([N+](=O)[O-])cc3)[nH]c2-c2ccc(OC)cc2)cc1`, the GI50 is reported as inactive: 11.2 µM. For `N#CC(C#N)=C1C(=Cc2ccc(OCCCCCCCCCCSSCCCCCCCCCCOc3ccc(C=C4C(=C(C#N)C#N)c5ccccc5C4=C(C#N)C#N)cc3)cc2)C(=C(C#N)C#N)c2ccccc21`, the GI50 was inactive: 18.3 µM. `O=C(/C=C/c1ccc(O)c(O)c1)Oc1ccccc1` was tested, and the GI50 was inactive: 22.9 µM. For `Cc1nc2ccccc2c(=O)n1NC(=S)Nc1ccccc1`, the GI50 was inactive: > 100 µM. `Cc1occc1C(=S)Nc1ccc(Cl)c(C(=O)OCC(C)C)c1` was tested, and the GI50 was inactive: 21.2 µM. For `Cc1n[nH]c(=O)n1/N=C/c1ccco1`, the GI50 was inactive: > 100 µM. `CCOC(=O)NNC(=O)NC12CC3CC(CC(C3)C1)C2` was tested, and the GI50 was inactive: > 100 µM. With `CSc1nc(Cl)c(Br)c(Nc2cnc(O)nc2O)n1` the GI50 was inactive: 16.7 µM. For `COc1cc2c(cc1OC)C(c1ccccc1CCCCl)=NCC2`, the GI50 was inactive: > 100 µM. `Clc1nc(NCCc2ccccc2)c2ncn(-c3ccccc3)c2n1` was tested, and the GI50 was inactive: 33.9 µM. For `COc1cc2oc3c(c(=O)c2c(O)c1/C=C/C(C)C)CCC(C)(C)Oc1cc(O)ccc1-3`, the GI50 was inactive: 23.7 µM. For `O=C(/C(=C/c1ccc(O)cc1)c1ccccc1)c1ccccc1`, the GI50 was inactive: 17.6 µM. With `CN(C)C(=S)SCC(=O)Nc1ccccc1` the GI50 was inactive: > 100 µM. For `CC1(C)CCCCCC(C)(CCCO)C1=O` (stereo unspecified), the GI50 was inactive: > 100 µM. `CCCNCCCC(NC(C)=O)C(=O)NCc1ccccc1` (stereo unspecified) was tested, and the GI50 was inactive: > 100 µM. In the case of `Cc1ccc(S(=O)(=O)c2c(N)n(CCN(C)C)c3nc4ccccc4nc23)cc1`, the GI50 is reported as inactive: > 100 µM. For `CCN(CC)CSc1nc2ccccc2o1`, the GI50 was inactive: > 100 µM. In the case of `COc1ccc(-n2cnc3c(NCC(=O)O)ncnc32)cc1`, the GI50 is reported as inactive: > 100 µM. `C[n+]1c(-c2ccc(/C=C/C=N\NC(=O)c3ccc(C(=O)N/N=C\C=C\c4ccc(-c5cn6ccccc6[n+]5C)cc4)cc3)cc2)cn2ccccc21` was tested, and the GI50 was inactive: > 64.6 µM. With `Cn1cc(NC(=O)c2cc(NC(=O)CCCCCCCCC(=O)Nc3cc(C(=O)Nc4cc(C(=O)NCCC(N)N)n(C)c4)n(C)c3)cn2C)cc1C(=O)NCCC(=N)N` the GI50 was inactive: 17.4 µM. In the case of `CC1=NN(C(=O)Nc2ccc(Cl)cc2)C(=O)C2CCC(=O)N12` (stereo unspecified), the GI50 is reported as inactive: > 100 µM. `COC(=O)C(Cc1c(C2Nc3ccccc3C2CC(NC(=O)CNC(C)=O)C(=O)OC)[nH]c2ccccc12)NC(=O)CNC(C)=O` (stereo unspecified) was tested, and the GI50 was inactive: > 100 µM. With `CN(C)CCSS(=O)(=O)O` the GI50 was inactive: > 100 µM. `CCCCCCCCCCCCCCCCCC(=O)OCC(C[As](=O)(O)O)OC(=O)CCCCCCCCCCCCCCCCC` (stereo unspecified) was tested, and the GI50 was inactive: > 100 µM. `COc1ccc(-c2nc(-c3ccc(OC)cc3)n(-c3ccccc3)n2)cc1` was tested, and the GI50 was inactive: 85.9 µM. In the case of `[N-]=[N+]=NC(c1cn(C2CC(O)C(CO)O2)c(=O)[nH]c1=O)C(Br)I` (stereo unspecified), the GI50 is reported as inactive: > 100 µM. For `NC(=O)c1ccccc1NC(=O)C(=O)C(c1cnc2ccc([N+](=O)[O-])cc2n1)[N+](=O)[O-]` (stereo unspecified), the GI50 was inactive: 76.9 µM. For `Cc1ccc(S(=O)(=O)c2scc(-c3ccccc3)c2C)cc1`, the GI50 was inactive: > 100 µM. For `Cc1ccc(C)c(N2C(=O)C(=O)C(c3nc4ccccc4o3)/C(=N\NC(=O)c3ccccc3O)C2=O)c1` (stereo unspecified), the GI50 was inactive: 40 µM. For `C1=Nc2ccccc2Cn2nncc21`, the GI50 was inactive: > 100 µM. `COC(=O)CNC(=O)C(C)NC(=O)C(CC(=O)OCc1ccccc1)NC(=O)OCc1ccccc1` (stereo not drawn) (Cbz-Asp(OBn)-Ala-Gly-OMe; configuration not given here) was tested, and the GI50 was inactive: > 100 µM. For `CN(C)C(=O)OC1C(=O)N(C)c2ccc(Cl)cc2C2(c3ccccc3)N1C2(Cl)Cl` (stereo unspecified), the GI50 was inactive: > 100 µM. `CN(NC(=O)/C(=C/C=C/c1ccccc1)NC(=O)c1ccccc1)C1=C(Cl)C(=O)[N+](c2ccccc2)=CC1` was tested, and the GI50 was inactive: 36.1 µM. In the case of `Cc1ccc(CC2(OCCN(C)C)CCC(C(C)(C)C)CC2)cc1` (stereo unspecified), the GI50 is reported as inactive: 3.07 µM. For `O=C(O)Cc1c[nH]c2ccc(F)cc12`, the GI50 was inactive: > 100 µM. With `Cc1cc(O)c2c(c1O)C(=O)C13C(=C(O)C4C(O)C1C1C(O)C3C(O)=C3C(=O)c5c(O)cc(C)c(O)c5C(=O)C341)C2=O` (stereo unspecified) the GI50 was active: 0.0775 µM. `Cc1ccc(/N=N\c2c(O)c(S(=O)(=O)O)cc3cc(S(=O)(=O)O)ccc23)c(C)c1` was tested, and the GI50 was inactive: > 100 µM. For `Cc1cc(O)cc(O)c1/N=N/c1ccc([N+](=O)[O-])cc1`, the GI50 was inactive: 19.7 µM. `CCCCn1cnc2c(SC)ncnc21` was tested, and the GI50 was inactive: 37.9 µM. For `CC[C@@]1(O)C[C@H](OC2CC(N(C)C)C(OC3CC(O)C(OC4CC(O)C(O)C(C)O4)C(C)O3)C(C)O2)c2c(cc3c(c2O)C(=O)c2c(O)ccc(O)c2C3=O)[C@H]1C(=O)OC` (stereo partly specified), the GI50 was active: 0.00906 µM. In the case of `Cc1ccc(Nc2n[nH]c(=S)s2)cc1C`, the GI50 is reported as inactive: > 100 µM. With `CC1(c2cccc3c2C2(O)C=CC4(CCC32)OCCO4)OCCO1` (stereo unspecified) the GI50 was inactive: > 100 µM. In the case of `CNC(=S)/C(C#N)=C(\N)N1CCN(C)CC1`, the GI50 is reported as inactive: > 100 µM. `Nc1ncnc2c1ncn2C1CCC(COS(N)(=O)=O)C1` (stereo unspecified) was tested, and the GI50 was inactive: > 100 µM. In the case of `COC(=O)Cc1cc(=O)[nH]c2c1C(=O)CCC2`, the GI50 is reported as inactive: > 100 µM. In the case of `Nc1ncnc2c1ncn2C1OC(CSCC(F)(F)F)C(O)C1O` (stereo unspecified), the GI50 is reported as inactive: > 100 µM. `COC(=O)C1=C(c2cc(OC)c(OC)c(OC)c2)OC(c2cc(OC)c(OC)c(OC)c2)C1COC(C)=O` (stereo unspecified) was tested, and the GI50 was inactive: 49.7 µM. In the case of `ON[C@@H]1C=C[C@H](n2cnc3c(NC4CC4)ncnc32)C1`, the GI50 is reported as inactive: > 100 µM. For `CN1CCN(CCNc2ccc(CO)c3sc4ccccc4c(=O)c23)CC1`, the GI50 was inactive: 7.28 µM. In the case of `O=C1/C(=C/c2ccccc2)NC(=S)N1CN1CCCCC1`, the GI50 is reported as inactive: > 100 µM. With `CN(C)[C@H]1CC[C@H]2[C@@H]3CCC4C[C@@H](NC(=O)NC(Cc5ccccc5)c5nccs5)CC[C@]4(C)[C@H]3CC[C@]12C` (stereo partly specified) the GI50 was inactive: 1.7 µM. For `Cc1nn(-c2ccccc2)c(C)c1/C=N/N=C1\SCC(=O)N1c1ccccc1`, the GI50 was inactive: 29.5 µM. `CC1=CCC[C@@](C)(O)[C@@H]2C[C@H]3C(CSc4ccccc4)C(=O)O[C@H]3[C@@H](O2)[C@H](C)CCC1` (stereo partly specified) was tested, and the GI50 was inactive: 19.2 µM. With `O=C(CN1CCNCCN(CC(=O)N2CCCCC2)CCNCC1)N1CCCCC1` the GI50 was inactive: > 100 µM. In the case of `COc1ccc(Cc2cc3c(cc2OCC(=O)O)OCO3)cc1`, the GI50 is reported as inactive: > 100 µM. With `CN(C)c1ccc(/C=C2\N=C(N/N=C/c3ccc(N(C)C)cc3)NC2=O)cc1` the GI50 was inactive: > 100 µM. In the case of `C#CCOCC12C=CC(O1)C1C(=O)N(C)C(=O)C12` (stereo unspecified), the GI50 is reported as inactive: 70.1 µM. In the case of `CN(C)CCCn1c(Cn2nc3ccccc3n2)nc2cc(C(F)(F)F)ccc21`, the GI50 is reported as inactive: 29.4 µM. For `Cc1ccccc1/C=C/c1csnn1`, the GI50 was inactive: > 100 µM. For `OC(CC(O)(C(F)(F)F)C(F)(F)F)C(O)c1ccco1` (stereo unspecified), the GI50 was inactive: > 10 µM. In the case of `O=c1c2cccc3cccc(c4n1CCCN=4)c32`, the GI50 is reported as inactive: > 100 µM. With `CNC1C(O)C(OC2C(N)CC(N)C(OC3OC(C(C)O)C(O)C(O)C3N)C2O)OCC1(C)O` (stereo unspecified) the GI50 was inactive: > 100 µM.

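Five concentrations, 48 hours, 96-well plates. GI50 = concentration required for 50% inhibition of growth.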 Calls of active or inactive are those of the source. Cut-off read from the data, not from the text of the source: active = GI50 up to about 1.1 µM and inactive = higher. Peptide text beside a SMILES is read from it. * marks the point of attachment. Cbz = O=C(OCc1ccccc1)*; OBn = c1ccc(CO*)cc1
